{"source": "ChEMBL document CHEMBL4888484", "about": "“Replenishing the malaria drug discovery pipeline: Screening and hit evaluation of the MMV Hit Generation Library 1 (HGL1) against asexual blood stage Plasmodium falciparum ,using a nano luciferase reporter read-out” (2022)", "note": "Out of some 150,000 compounds screened, about 540 (0.36%) showed an effect of 50% or more. This is one part of the list.", "data": [{"tested_on": "Plasmodium falciparum", "experiment": "Primary screen in NF54 nanoGlo assay, in single point, at 2uM, 72h; a lower Z score goes with more inhibition", "type": "functional, Erythrocyte", "details": "timepoint 72 hour", "units": {"% Inhibition": "%"}, "values": [{"smiles": "CCc1nc(C)ccc1OCc1ncc(C)o1", "% Inhibition": -7, "Z score": 1.05}, {"smiles": "Cn1ccnc1[C@@H](NC(=O)c1cc(C2CC2)no1)C1CC1", "% Inhibition": -12, "Z score": 1.43}, {"smiles": "O=C1CCC(C(=O)N2CCCCCC2C=Cc2ccccc2)N1", "note": "(stereo not given)", "% Inhibition": -11, "Z score": 1.83}, {"smiles": "CC(C)Cc1noc(CN(C)Cc2ccc3c4c(cccc24)C(=O)OC3)n1", "% Inhibition": -11, "Z score": 1.86}, {"smiles": "Cc1nc(Nc2ccccn2)cc(C(F)(F)F)n1", "% Inhibition": -6, "Z score": 0.67}, {"smiles": "Cc1cscc1NC(=O)N1CCCS(=O)(=O)C[C@H]1C1CC1", "% Inhibition": -12, "Z score": 1.91}, {"smiles": "Cc1cc(-n2cncn2)ccc1C(=O)N1CCC(N2CCCCC2=O)CC1", "% Inhibition": -11, "Z score": 2.01}, {"smiles": "COc1nccnc1N[C@H]1CCOC[C@@H]1OCc1ccccn1", "% Inhibition": -10, "Z score": 1.67}, {"smiles": "CC(C)C(=O)Nc1ccc2c(c1)cc(C(=O)NCc1ccccc1)n2Cc1ccc(C(F)(F)F)cc1", "% Inhibition": -5, "Z score": 0.66}, {"smiles": "CC(C)N1CCN(S(=O)(=O)c2cc(-c3nnc(C4CCCC4)o3)co2)CC1", "% Inhibition": -2, "Z score": 0.23}, {"smiles": "COCc1nc(Cc2noc([C@@]3(C)CCNC(=O)C3)n2)cs1", "% Inhibition": 1, "Z score": -0.08}, {"smiles": "CN(CCN(C)C(=O)C1CC2CCC1O2)C(=O)c1cc(C2CCCC2)no1", "note": "(stereo not given)", "% Inhibition": -4, "Z score": 0.56}, {"smiles": "CCNc1nc(C)cc(OC(F)F)n1", "% Inhibition": -6, "Z score": 1.18}, {"smiles": "COC(=O)c1ccc(N[C@@H](C)c2ccc(OC)c(F)c2)nn1", "% Inhibition": -10, "Z score": 1.85}, {"smiles": "O=C(Nc1ccc(-c2cc3c(o2)CCN(C(=O)c2ccc4ccccc4c2)C3)cc1)c1ccc(Cl)cc1Cl", "% Inhibition": 4, "Z score": -0.51}, {"smiles": "C[C@@H](CNC(=O)c1cc[nH]n1)Oc1ccc(F)cc1", "% Inhibition": 7, "Z score": -0.94}, {"smiles": "c1ccc2c(c1)C[C@H](Cc1ccc(-n3ccnc3)nn1)CO2", "% Inhibition": 3, "Z score": -0.64}, {"smiles": "Cc1ccc(NC(=O)c2nc(-n3ccnc3)ncc2Cl)cc1Cl", "% Inhibition": -10, "Z score": 1.34}, {"smiles": "CC(C)CC(=O)N(Cc1ccc(Br)o1)[C@H]1CCS(=O)(=O)C1", "% Inhibition": 1, "Z score": -0.06}, {"smiles": "CC(C)C1(CNC(=O)[C@H]2CCCN(C3CCN(Cc4ccncc4)CC3)C2)CC1", "% Inhibition": -11, "Z score": 1.51}, {"smiles": "O=C(NCCn1nc(C2CC2)ccc1=O)c1ccncc1F", "% Inhibition": 6, "Z score": -0.77}, {"smiles": "CC1CCCN(C(=O)C(C)NC(=O)C(C)(C)C)C1", "note": "(stereo not given)", "% Inhibition": 2, "Z score": -0.4}, {"smiles": "O=C(NCc1ccc(Nc2ccncc2)cc1)[C@H]1CCCO1", "% Inhibition": -9, "Z score": 1.24}, {"smiles": "C[C@@H](c1ccc(-c2cccc(-n3cnnc3)c2)cc1)N(C)C", "% Inhibition": 6, "Z score": -0.76}, {"smiles": "CCc1ccc2c(c1)CCN2Cc1nc(C(=O)O)co1", "% Inhibition": 1, "Z score": -0.26}, {"smiles": "CN1CCN(c2cc(Br)ccc2C#N)C[C@H]1c1ncc[nH]1", "% Inhibition": -22, "Z score": 2.23}, {"smiles": "CN(CC1CCC1)c1nnnn1Cc1cnn(CC(F)(F)F)c1", "% Inhibition": -9, "Z score": 1.71}, {"smiles": "CCN(CC)c1ccc(C(=O)OCC(=O)NC(=O)NC)cn1", "% Inhibition": -14, "Z score": 1.52}, {"smiles": "O=C(Cc1c(F)cccc1F)N1CCC(n2c(-c3ccccc3)nc3ccc(F)cc32)CC1", "% Inhibition": -3, "Z score": 0.37}, {"smiles": "CC(C)CC(=O)N1CCCN(c2nc(C(F)(F)F)nc3ccccc23)CC1", "% Inhibition": 6, "Z score": -0.76}, {"smiles": "Cc1ccc2c(c1)N(C(=O)c1c[nH]c(C)cc1=O)CCC2", "% Inhibition": 36, "Z score": -4.1}, {"smiles": "CO[C@H]1CS(=O)(=O)C[C@@H]1NC(=O)c1sccc1Cl", "% Inhibition": -2, "Z score": 0.29}, {"smiles": "O=C(NCCc1n[nH]c(=O)[nH]1)c1c(F)cc(Br)cc1F", "% Inhibition": -3, "Z score": 0.32}, {"smiles": "CN1CCN(c2nc3c(c(N(C)C)n2)CN(C(=O)c2ccc(C(F)(F)F)cc2)CC3)CC1", "% Inhibition": 5, "Z score": -0.71}, {"smiles": "CN(C[C@H]1CCOC1)C(=O)CCc1ccn(C)n1", "% Inhibition": -6, "Z score": 1.03}, {"smiles": "C[C@H](NC(=O)c1cnn2c(-c3ccc(F)cc3)ccnc12)c1ccccc1", "% Inhibition": -16, "Z score": 1.58}, {"smiles": "Nc1nnnn1CC(=O)NCc1ccc2c(c1)OCO2", "% Inhibition": -3, "Z score": 0.53}, {"smiles": "CN(C[C@H]1Cc2ccccc2CO1)C(=O)c1cnccn1", "% Inhibition": -13, "Z score": 1.49}, {"smiles": "COc1ccc(F)c(CN2CCC[C@@]3(CCN(C(=O)c4cc(C)[nH]n4)C3)C2)c1", "% Inhibition": -3, "Z score": 0.47}, {"smiles": "O=C1NC2(CCCCCCC2)C(=O)N1Cc1cccc(Cl)c1", "% Inhibition": 4, "Z score": -0.8}, {"smiles": "CN(c1ccc(NC(=O)N2CCC[C@H](O)C2)cc1F)C1CCCCC1", "% Inhibition": -13, "Z score": 1.72}, {"smiles": "CC(C)[C@@H](NC(=O)C1COc2ccccc2O1)C(=O)Nc1nccs1", "note": "(stereo not given in full)", "% Inhibition": 4, "Z score": -0.56}, {"smiles": "CN(C)c1nn(CC(=O)N2CCN(c3ccccc3)CC2)cc1-c1ccccc1", "% Inhibition": -4, "Z score": 0.62}, {"smiles": "O=C1C[C@@H](c2ccccc2)N(S(=O)(=O)c2ccc(F)c(C(F)(F)F)c2)CCN1", "% Inhibition": -11, "Z score": 1.41}, {"smiles": "COc1ccc(O[C@@H](C(=O)Nc2ccc(C)c(C)c2)c2ccccc2)cc1", "% Inhibition": -10, "Z score": 1.4}, {"smiles": "CCc1oc2ccccc2c1C(=O)N1CC[C@H](O)C1(C)C", "% Inhibition": -2, "Z score": 0.24}, {"smiles": "N#CCN1CCC(CNC(=O)[C@H]2CCCOC2)CC1", "% Inhibition": -3, "Z score": 0.55}, {"smiles": "CC1CN(CC(O)Cn2ccnc2C(C)C)CC(C)O1", "note": "(stereo not given)", "% Inhibition": -5, "Z score": 0.61}, {"smiles": "COCCc1nnc(NC(=O)c2ccc3c(c2)CCCC3)o1", "% Inhibition": -11, "Z score": 1.3}, {"smiles": "O=C(c1ccc(-n2cccn2)cc1)N1CCN(c2ccccc2O)CC1", "% Inhibition": 36, "Z score": -1.02}, {"smiles": "CN(C)C(N)=NCCCc1ccccc1", "% Inhibition": 11, "Z score": -2.05}, {"smiles": "CC(C)COCC(O)CN(Cc1ccc(F)cc1)CC1CC(c2ccccc2)=NO1", "note": "(stereo not given)", "% Inhibition": -15, "Z score": 2.15}, {"smiles": "COCCN(CC(=O)N(C)C)c1ncnc2c1ncn2CC1(CO)CCOCC1", "% Inhibition": -2, "Z score": 0.23}, {"smiles": "CCc1ccccc1C(=O)N(C)CC1(CO)CCC1", "% Inhibition": -13, "Z score": 2.51}, {"smiles": "C=C(C)CN(CC)C(=O)c1cn([C@@H](C)CC)cc(C(=O)NCc2ccco2)c1=O", "% Inhibition": -8, "Z score": 1.17}, {"smiles": "CN1CCN(C(=O)[C@H](C(=O)c2cccc(Cl)c2)n2ccccc2=O)CC1", "% Inhibition": 35, "Z score": -4.46}, {"smiles": "Cc1nc2cc(CNC(=O)NC3CCCCC3)ccc2n1C", "% Inhibition": 0, "Z score": -0.02}, {"smiles": "O[C@H](c1cccnc1)c1ccc2c(c1)CNCCO2", "% Inhibition": -4, "Z score": 0.74}, {"smiles": "COc1ccccc1OCC(=O)Nc1cc(-c2ccccn2)no1", "% Inhibition": -13, "Z score": 1.26}, {"smiles": "COC(=O)NC1(CCC(=O)O)CCCCC1", "% Inhibition": -9, "Z score": 0.96}, {"smiles": "CCc1cnc(CCNc2ncccc2C#N)s1", "% Inhibition": -12, "Z score": 1.27}, {"smiles": "CCOC(=O)C1=C(c2ccccc2)S/C(=C2/C(=S)C(C)(C)N(C(C)=O)c3ccc(OCC)cc32)S1", "% Inhibition": -12, "Z score": 1.9}, {"smiles": "COCc1cc(CN[C@@H](C)C2(S(C)(=O)=O)CC2)ccc1F", "% Inhibition": -1, "Z score": 0.23}, {"smiles": "CC(=O)N[C@H]1[C@H](Oc2ccccc2Cl)O[C@@H]2COC(c3ccco3)O[C@H]2[C@@H]1O", "note": "(stereo not given in full)", "% Inhibition": -1, "Z score": 0.23}, {"smiles": "O=C(c1ccc(-c2nc(-c3ccc(Cl)cc3)no2)cc1)N1CCCCC1", "% Inhibition": 2, "Z score": -0.17}, {"smiles": "NC(=O)C1CCN(C(=O)c2ccc3c(c2)N(Cc2ccccc2)C(=O)CO3)CC1", "% Inhibition": -12, "Z score": 2.19}, {"smiles": "CC(O)CC(C)(C)CNC(=O)NC1CC1c1ccc(F)cc1F", "note": "(stereo not given)", "% Inhibition": 10, "Z score": -1.17}, {"smiles": "O=C(c1cn2ccccc2n1)N1CCN(C2CC2)CC1", "% Inhibition": -6, "Z score": 0.7}, {"smiles": "CC1CN(C(=O)Cc2cnn(-c3ccccc3)n2)C(C)CO1", "note": "(stereo not given)", "% Inhibition": 2, "Z score": -0.33}, {"smiles": "Cc1ccn2c(NCc3cc(C#N)cs3)nnc2c1", "% Inhibition": 6, "Z score": -0.77}, {"smiles": "Nc1c2c(nc3c1CCC3)CCCCC2", "% Inhibition": 33, "Z score": -3.72}, {"smiles": "O=C(CC1CCCC1)N1CCC(O)(Cn2cc(C(=O)N3CCOCC3)nn2)CC1", "% Inhibition": 29, "Z score": -3.26}, {"smiles": "O=C(NCCc1ccncc1)c1[nH]nc2c1CCc1ccccc1-2", "% Inhibition": -4, "Z score": 0.47}, {"smiles": "O=C1CCCC[C@@H]1S(=O)(=O)N1CCC(C(F)F)CC1", "% Inhibition": -4, "Z score": 0.95}, {"smiles": "CC[C@H](C)N(CCc1nc(-c2ccc(OC)c(OC)c2)no1)C(=O)C1CCC1", "% Inhibition": -11, "Z score": 1.48}, {"smiles": "C[C@H]1C(=O)N(c2cccc3ccccc23)CCN1C(=O)Nc1ccccc1", "% Inhibition": 9, "Z score": -1.11}, {"smiles": "O=C1[C@@H]2CCCN2C(=O)N1Cc1c(Cl)cccc1Cl", "% Inhibition": -10, "Z score": 1.6}, {"smiles": "CC(C)(C)[C@H](CO)CNC(=O)c1cnccn1", "% Inhibition": -19, "Z score": 2.66}, {"smiles": "COC[C@H](C)N(C)C(=O)c1csc(NC(C)=O)n1", "% Inhibition": -8, "Z score": 1.5}, {"smiles": "CCc1ccnc(C(=O)N[C@@H]2C=C[C@H](CO)C2)c1", "% Inhibition": -14, "Z score": 2.53}, {"smiles": "O[C@@H](CNc1cc(C(F)(F)F)ccn1)CN1CCCCC1", "% Inhibition": -2, "Z score": 0.34}, {"smiles": "Cc1ccc(-c2csc(NC(=O)Cc3n[nH]c(=O)c4ccccc34)n2)cc1", "% Inhibition": -9, "Z score": 1.88}, {"smiles": "COc1ccc(CC(=O)N[C@H]2COCC[C@@H]2OCc2ccccn2)cc1", "% Inhibition": -2, "Z score": 0.39}, {"smiles": "CCOc1ccc(CCNC(=O)C2CCCN(S(=O)(=O)N3CC(C)CC(C)C3)C2)cc1OCC", "note": "(stereo not given)", "% Inhibition": 0, "Z score": -0.01}, {"smiles": "CC(=O)N[C@@H]1CN(C(=O)c2ccc3cc[nH]c3c2)C[C@H]1CO", "% Inhibition": -11, "Z score": 1.94}]}]}
